# Assay results: the supplement of paper PMC11417369
# ± gives the standard deviation of the averaged measurements. This is one part of the list.
# Test system: PfAP2-I AP2 domain 3 (GST-tagged)
# Assay: gcPBM binding intensity (ln(normalized median fluorescence intensity)); higher = stronger DNA binding
# Procedure, shortened: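 An Agilent 4 × 180k array carrying primer-extended double-stranded 36-bp intergenic genomic probes and negative controls received GST-tagged P. falciparum DNA-binding domains expressed in E. coli, about 25 μg on average, for 1 h. The binding buffer contained 1× PBS, 1% milk, 0.2 mg/ml BSA, 0.5% salmon testes DNA and 0.03% Triton X-100. Binding intensity is the top Masliner-normalised natural-log median intensity across replicate spots of either probe orientation, read after Alexa488 anti-GST antibody staining and a 488 nm scan.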
row,Sequence,gcPBM binding intensity (ln)
1,AAAATAAAATATTTCTGTACTTATAACTATTCTATA [XGTACX_site8007],7.61 ± 0.52
2,GGGTATACAAATAAACGTACAAACTCATAAAAAAAA [XGTACX_site3191],8.05 ± 0.29
3,CATATATAACAATTCTCACACATAAAAAAAAAAAAT [CACACA_site4564],7.46 ± 0.49
4,TTTTTGCCATATTACACACACACATGTAAACCCCCT [CACACA_site1647],9.225 ± 0.007
5,GTGAAATATGCAAACACACACGAGAAAAATGTATAT [CACACA_site7488],8.19 ± 0.91
6,CAAAACAAAACGTATGCACACAATTAATATATTAAA [CACACA_site3405],8.42 ± 0.47
7,TAAATAAGCACATACACACATACATACATACATAAA [CACACA_site4017],8.32 ± 0.17
8,AACCCCGTGGAAATATGTACATATAAATATATAAAT [XGTACX_site2094],8.35 ± 0.89
9,TATTTTTTTCTTACATACTAATTTGGTACTCACATA [TGCATGCA_negctrl_site81],7.83 ± 0.67
10,AAATAAATCTTATGCACACAAATAATTAATTAAACA [CACACA_site1693],9.38 ± 0.18
11,AGAGTTCTCATATGCACACAAAAAACTTTCATTTAT [CACACA_site45],8.74 ± 0.33
12,TTGATTACACTGAAGTGTACATATATATATATATAT [XGTACX_site3532],9.38 ± 0.21
13,AATATCCACATTAGGAGTACACAGCTAACTGTTTGA [XGTACX_site3357],7.86 ± 0.57
14,AAATAATAAAAAAAATGTACACGTAAATATTATATT [XGTACX_site8125],8.12 ± 0.83
15,TTTTATATAAAATCGTGTACATACCATTTCCTATTA [XGTACX_site5159],9.02 ± 1
16,AAAAAAAAAAGAAACACACACATTTGTATATAATAT [CACACA_site2078],7.54 ± 0.6
17,CATATAAAAATGTGCACACACACACCCATATATATT [CACACA_site1526],9.42 ± 0.45
18,AAAATTAATAAATAAACACACATATATATATATATA [CACACA_site2598],9.37 ± 0.34
19,TAAAAAATAAATATATGTACATATTTATTTTTTTTT [XGTACX_site850],7.47 ± 0.17
20,ATATTTTTTTTTTCGTGTACGCATAAATATATCTAA [XGTACX_site3360],8.27 ± 0.42
21,ATTGAATTCCAACTGGTGCACCAGTAAGATTGAAAA [GTGCAC_site9895],10.6 ± 0.3
22,TAGATAAACAAGAAATGTACAAACGTAAATATGTTC [XGTACX_site2373],7.59 ± 0.73
23,ATATATTATTTCTAGTGTACATACCCATATATAATA [XGTACX_site8902],8.54 ± 0.4

row,Sequence,gcPBM binding intensity (ln)
1,ATAAATAAGATATATACACACATATCTATACATATT [CACACA_site6369],7.66 ± 0.63
2,ATTTAAGAAAAAAGTTGTACTTATTTATTTTTATTT [XGTACX_site5561],7.68 ± 0.3
3,GGCTAAAAGGGGCACACACACAAAAAAAAAAAAAAA [CACACA_site3288],8.69 ± 0.12
4,AATCCACTTTTTTATGTTATACAATATAAATTAAAT [XGTACX_negctrl_site446],7.71 ± 0.59
5,AGTGGAATGTATGATTTTCATTCCTTAAAATTTTAA [GTGCAC_negctrl_site521],7.34 ± 0.71
6,TATTGATTTATAAACACACACTCGAAGATGTTTAAC [CACACA_site4760],7.58 ± 0.59
7,AATACTAAAAAGTGTACACATACATAAAAAATTGCA [CACACA_site5620],8.29 ± 0.29
8,AAGAAAAAAGTTATTAGTACACATTATAATAAAAAG [XGTACX_site3527],7.97 ± 0.54
9,CATTATGTTGTAAATACACACATACATATACATACA [CACACA_site8143],7.78 ± 0.56
10,TATATATATGTAAATCGTACAAATTATATATATCAT [XGTACX_site2821],7.8 ± 0.49
11,TATATCTCATAGTATACACACACACCCACCCACATA [CACACA_site8513],8.62 ± 0.74
12,TAATTTTCTTTTTATCGTTTTTTTTTTTTTTTTTTT [XGTACX_negctrl_site432],8.96 ± 0.52
13,ATAAATATGTAAAAAACATGCAAAAAATTAAAGACA [TGCATGCA_site912],8.14 ± 0.65
14,GTTATTAAACAGAAAAGTACATATGTATATTAAAAT [XGTACX_site3724],7.95 ± 0.64
15,TTATTAAATAAAATCATGCACACAATATATATTTTA [CACACA_site2496],8.28 ± 0.37
16,TTATTACATAACAATATACACACTATTGATTAAAGA [CACACA_site2933],7.6 ± 0.52
17,TAAAAAAAAAGAAGCTGTACTAAAAAATTTATATTA [XGTACX_site7408],7.55 ± 0.49
18,GGAAACAAAAAATATATACACACTAAACATAAAAAA [CACACA_site20],7.66 ± 0.65
19,TCATAGTAGAAACACACACACACACCCATATATATA [CACACA_site1737],8.46 ± 0.7
20,AACGCACATATATTTATGTATATATATATATATATA [GTGCAC_negctrl_site478],9.21 ± 0.33
21,GGGTTTTTTATTAATACATGCATGGAAACGCACTAT [TGCATGCA_site1000],10.2 ± 0.19
22,AAATTCATAAAAATATTTTATAATTATATATAGAAT [TGCATGCA_negctrl_site343],7.51 ± 0.53
23,ATATATATATAATTTGTACACACAAATATGCATATA [CACACA_site9136],9.18 ± 0.24

row,Sequence,gcPBM binding intensity (ln)
1,AAGAAAAACAATGAGATAAAGAAGAGAAAATATGTC [TGCATGCA_negctrl_site415],8.13 ± 0.71
2,TTTTCAAAAATATATACACACATGCATATTACGGTG [CACACA_site775],8.1 ± 0.75
3,TACATGATAAGATGTAGTACATAAAAGAATAAATTA [XGTACX_site787],7.89 ± 0.34
4,TATTCAATACTTAATGCACACAATAAAAAAAATATG [CACACA_site2467],10.9 ± 0.71
5,ACGATAACATTTTTACGTACATATATTTTCACGGAG [XGTACX_site8764],7.99 ± 0.44
6,ATATTGACAGGAAAAATTTTCTTTGAATCTTTAAAA [CACACA_negctrl_site1191],7.49 ± 0.57
7,AAATGAAAAATAAGGAAAAAAAAAAAAAAAAAAAAA [CACACA_negctrl_site1715],8.12 ± 0.71
8,TAAAATATTTCAAAGGTGCAATGATAATTTAAGACG [GTGCAC_site9609],10.6 ± 0.54
9,TATGTTATATTGGACACACACAATAAACATTATGTA [CACACA_site1657],7.7 ± 0.32
10,ATATATATATATAAGCGTACGCGTAGTTAAATTAAT [XGTACX_site7693],9.04 ± 0.37
11,ACAAAAAAAATAAGCACACATATATATATATATATA [CACACA_site816],9.38 ± 0.36
12,TTTTGTCGGAAATCGGATAAGAAGAAAAAAAATAAT [GTGCAC_negctrl_site594],8.02 ± 0.53
13,TTCACTCCATATTATACACACACACTAATGAAAAAA [CACACA_site8991],8.21 ± 0.25
14,AAAAAAAAAAAAAGTACACACATACATATAAATATA [CACACA_site8533],8.205 ± 0.049
15,AAAAAAAAAAAATACGTGCACTATGATATATTATAT,11.4 ± 0.36
16,ATAATATTTATAAATTGTACTAATGTTCAATAATTA [XGTACX_site7284],7.51 ± 0.3
17,AAATTTTATAAAGGAACACACATTTTTTTTTTTTCT [CACACA_site2368],7.48 ± 0.52
18,GAAATAATTTTTATTTGTACACACATACATATATAT [XGTACX_site1862],8.07 ± 0.42
19,TTATTCATTTCGAAAAGTACAAATTCTGTTTATTAT [XGTACX_site6892],7.68 ± 0.49
20,CCACTAATTATGTGCACACAAATTAAAGGTCTACAA [CACACA_site4259],10.8 ± 0.23
21,AAAAAAAAAAAACATACACACATACATACAGATATA [CACACA_site4681],7.58 ± 0.54
22,TTCTATTTTATATGTGCACACATATACACCCACAAA [CACACA_site1130],10.3 ± 0.11
23,TTCTTTTTGAAACACACACACACAAGAAAATATATA [CACACA_site3110],8.1 ± 0.37

row,Sequence,gcPBM binding intensity (ln)
1,TTTCACTACACAAATACACACAAAAATATATGTGCA [CACACA_site2632],7.91 ± 0.54
2,AAATTTTTTGTTCAATGTACTTTTTTATTATATTTT [XGTACX_site5298],7.64 ± 0.73
3,TCTACTATTATATATTGTACAAATGATACTTATATT [XGTACX_site1819],7.81 ± 0.35
4,ATTTTTTAAATTTAAACACACATTTTGTATATGTTT [CACACA_site1654],7.88 ± 0.55
5,GATATATAATATAATACACACATTTTATGAATGTAA [CACACA_site24],7.66 ± 0.32
6,AATATATTATATATATGTACATAATGTGTAATACCT [XGTACX_site2845],8.06 ± 0.38
7,TTAAAATTTTTCAAAAGTACATAAATAATATATATT [XGTACX_site4694],7.68 ± 0.49
8,AAAAAAAATTCATATTGTACTTTTAAATTAAAGAAA [XGTACX_site4521],7.71 ± 0.2
9,TTTATTTGTTCATGCGTGCACTTGATAACAATGTAC [GTGCAC_site9561],9.99 ± 0.53
10,TTTTTTTTTGTTAAAGTGCATATATTAAATTTTCCT [GTGCAC_site9677],9.64 ± 0.3
11,GGAAAAAAATATAAAAGTACTTTTTATTTATTTTAT [XGTACX_site7418],7.79 ± 0.4
12,CGTTATATCAAAGGAGTGCATTATGAATACGTTTTA [GTGCAC_site9837],11.4 ± 0.65
13,AGTGAATATCTAAAATGTACATAAATAAATAAATAA [XGTACX_site8293],8.22 ± 0.77
14,AAAAAAATAACAAAAGTGCATTTTTATGAGTTATCT,8.91 ± 0.19
15,ATATATAATTAATAAAGTACATTAATTATTTCTTTT [XGTACX_site3034],7.46 ± 0.49
16,TATAATTAAAATTTGTGTACGTATGACAAAACATTT [XGTACX_site7072],7.92 ± 0.52
17,AGATACAAGCACTATAGTACACATACTAAAAATATA [XGTACX_site5849],8.55 ± 0.057
18,TTTCCTTACCCTTTCCTGGTGTAGAAATTATACTCT [TGCATGCA_negctrl_site116],7.79 ± 0.56
19,AATCATGCTCCGGAAAGTACATAAATAAATAAATAA [XGTACX_site1690],8.29 ± 0.69
20,GAAAGGACAAGAATAGTGCACATGCAATGTTATTTT [GTGCAC_site9985],10.7 ± 0.11
